# Certain results were filed several times, with different values. This list holds those alone. An entry can have further records. The records of an entry are repeats (runs, samples, wells, individuals or studies). Marks such as (2×) count equal records among those shown.
# Tested on: 323965-272-R-J2-PDC complex spheroid growth, % test/control
# Assay: Anticancer human tumor 323965-272-R-J2-PDC patient-derived pancreatic carcinoma cell line growth inhibition [Asc]
# Conditions: stronger effect = lower value
# Method: Multicellular complex tumor spheroid response to apoptosis pathway targeting inhibitors Alrizomadlin, Pelcitoclax, and Dasminapant in combination with a variety of drugs and investigational agents in selected tumor cell lines
# The MDM2 inhibitor alrizomadlin, the Bcl-2/Bcl-xL inhibitor pelcitoclax, and the IAPs inhibitor dasminapant were evaluated both individually and in combination with standard of care and investigational anticancer small molecules within a complex spheroid model of solid tumors. . Complex spheroids include a stromal component modeled by human endothelial cells (HUVEC) and fibroblasts modeled by human mesenchymal stem cells (MSCs). The concentration ranges selected for each drug and investigational agent were based upon clinically achievable concentrations if the clinical Cmax of the agent was known.
# Compounds. The drugs and investigational agents: alrizomadlin (APG-115; NSC831270), pelcitoclax (APG-1252; NSC835773), dasminapant (APG-1387;NSC834197), TAK-243 (NSC785004), copanlisib (NSC809693), olaparib (NSC753686), talazoparib (NSC767125), cobimetinib (NSC 768068), eltanexor (KPT-8602, NSC 794443), abemaciclib (NSC 768073), sotorasib (NSC818433), adagrasib (NSC 831453), MRTX-1133 (NSC 836407), Iadademestat (ORY1001, NSC 806812), and RMC-4630 (NSC839698), were obtained from the NCI Developmental Therapeutics Program Chemical Repository. The FDA-approved anticancer drug set is available from the Developmental Therapeutics Program at https://dtp.cancer.gov/organization/dscb/obtaining/available plates.htm. […] The stock solutions were prepared in dimethyl sulfoxide (DMSO, Sigma-Aldrich, St. Louis, MO, cat. D2650) at 800-fold the tested concentration and stored at -70 degrees C prior to their use. All drugs and investigational agents were tested over a range starting from a high concentration at or near the clinical Cmax and decreasing in half-log increments. If the clinical Cmax for an agent had not been determined, the highest concentration tested was 10 microM.
# The patient-derived cancer (PDC) cell lines include five colon adenocarcinomas: 186277-243-T-J2-PDC, 616215-338-R-J1-PDC, 439559-082-T-J2-PDC, 463943-066-T-J2-PDC, and 519858-162-T-J1-PDC; three pancreatic carcinomas: 323965-272-R-J2-PDC, 521955-158-R6-J3-PDC, and 521955-158-R2-J5-PDC; two uterine sarcomas: 327498-152-R-J2-PDC and 993429-296-R-J1-PDC; two rhabdomyosarcomas: 755483-174-R-J1-PDC and 772245-204-R-J1-PDC; two soft tissue sarcomas: 126254-015-R-J1-PDC and 494315-158-R-J1-PDC; two malignant fibrous histiocytomas: 317291-083-R-J1-PDC and 596521-263-R-J1-PDC; two breast carcinomas: 171881-019-R-J1-PDC and 885512-296-R-J2-PDC; and one ovarian carcinoma: 6556581-035-R-J-PDC were obtained from the NCI PDMR, (https://pdmr.cancer.gov). The established cell lines HSSY-2 synovial sarcoma (RRID:CVCL 8719), SYO-1 synovial sarcoma (RRID:CVCL_7146), MPNST malignant peripheral neural sheath tumor were obtained from the Sloan Kettering Institute. […]
# 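Note: compound exposure lasted 7 days starting three days after spheroid seeding; 100% = DMSO vehicle control wells with viability set relative to vehicle.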
compound,measurement,setting,value
CNC(C)C(=O)NC1CN(S(=O)(=O)c2cccc(S(=O)(=O)N3CCC4CCC(C(=O)NC(c5ccccc5)c5ccccc5)N4C(=O)C(NC(=O)C(C)NC)C3)c2)CCC2CCC(C(=O)NC(c3ccccc3)c3ccccc3)N2C1=O (stereo not given),"viability, T/C",compound alone 0.00316 µM,"108 (2×), 104, 54.1, 107 (2×), 94.3, 110, 117%"
same,"viability, T/C",compound alone 0.0316 µM,"106, 90.4, 100, 117, 113 (2×), 107, 103, 98.8%"
same,"viability, T/C",compound alone 1 µM,"104, 58.6, 90.2, 92.9, 109, 89.3, 101, 89.6, 92.8%"
Cc1c(S(C)(=O)=O)c(-c2cc(F)cc(N3CCN(c4ccc(NS(=O)(=O)c5ccc(NC(CCN6CCC(C(=O)OCCCP(=O)(O)O)CC6)CSc6ccccc6)c(S(=O)(=O)C(F)(F)F)c5)cc4)CC3)c2)c(-c2ccc(Cl)cc2)n1C(C)C (stereo not given),"viability, T/C",compound alone 1 µM,"109, 76.2, 80.5, 92.3, 75.2, 82.4, 79.2%"
C=C(F)C(=O)N1CCN(c2nc(OCC3CCCN3C)nc3c2CCN(c2cccc4cccc(Cl)c24)C3)CC1CC#N (stereo not given),"viability, T/C",compound alone 10 µM,"32.8%, 21.9%, 2.26%"

# — PubChem BioAssay AID1963425 (Molecular Pharmacology Branch, DTP, NCI, 2024)
